Hit rate of the full screen: of about 310,000 compounds, about 2,200 (0.71%) showed an effect of 50% or more. The effect is printed as a negative number. The list shows a part of the results.
What follows are molecules tested against human ether-à-go-go-related gene (hERG) potassium channel (human, UniProt Q12809) (assay: primary screen, population patch clamp on CHO cells stably expressing hERG).
Procedure: Briefly, Chinese hamster ovary (CHO) cells stably expressing the hERG channel were dislodged from tissue culture flasks and dispensed into PPC plates. […] During the recording, background leak currents were estimated by a 100 ms step to -80 mV from an initial holding potential of -70 mV and subtracted from the subsequent current measurement. The campaign was conducted in two phases using slight differences in recording protocol. In the first phase, the initial voltage pulse used a 100 ms step to -30 mV from a holding potential of -70 mV, a 2 s conditioning step to +25 mV, and a 2 s test step to -30 mV. During the second phase of the screen, the potential during the conditioning step was raised to +45 mV. In both phases of the campaign, a secondary voltage pulse was applied using the same parameters as the second phase initial pulse. The initial and secondary pulses were applied in the absence of compound, and upon application of 1 μM and 10 μM test concentrations. Small molecule effects on hERG current density were quantified by […].

Chain of human ether-à-go-go-related gene (hERG) potassium channel (Q12809 whole entry, looked up): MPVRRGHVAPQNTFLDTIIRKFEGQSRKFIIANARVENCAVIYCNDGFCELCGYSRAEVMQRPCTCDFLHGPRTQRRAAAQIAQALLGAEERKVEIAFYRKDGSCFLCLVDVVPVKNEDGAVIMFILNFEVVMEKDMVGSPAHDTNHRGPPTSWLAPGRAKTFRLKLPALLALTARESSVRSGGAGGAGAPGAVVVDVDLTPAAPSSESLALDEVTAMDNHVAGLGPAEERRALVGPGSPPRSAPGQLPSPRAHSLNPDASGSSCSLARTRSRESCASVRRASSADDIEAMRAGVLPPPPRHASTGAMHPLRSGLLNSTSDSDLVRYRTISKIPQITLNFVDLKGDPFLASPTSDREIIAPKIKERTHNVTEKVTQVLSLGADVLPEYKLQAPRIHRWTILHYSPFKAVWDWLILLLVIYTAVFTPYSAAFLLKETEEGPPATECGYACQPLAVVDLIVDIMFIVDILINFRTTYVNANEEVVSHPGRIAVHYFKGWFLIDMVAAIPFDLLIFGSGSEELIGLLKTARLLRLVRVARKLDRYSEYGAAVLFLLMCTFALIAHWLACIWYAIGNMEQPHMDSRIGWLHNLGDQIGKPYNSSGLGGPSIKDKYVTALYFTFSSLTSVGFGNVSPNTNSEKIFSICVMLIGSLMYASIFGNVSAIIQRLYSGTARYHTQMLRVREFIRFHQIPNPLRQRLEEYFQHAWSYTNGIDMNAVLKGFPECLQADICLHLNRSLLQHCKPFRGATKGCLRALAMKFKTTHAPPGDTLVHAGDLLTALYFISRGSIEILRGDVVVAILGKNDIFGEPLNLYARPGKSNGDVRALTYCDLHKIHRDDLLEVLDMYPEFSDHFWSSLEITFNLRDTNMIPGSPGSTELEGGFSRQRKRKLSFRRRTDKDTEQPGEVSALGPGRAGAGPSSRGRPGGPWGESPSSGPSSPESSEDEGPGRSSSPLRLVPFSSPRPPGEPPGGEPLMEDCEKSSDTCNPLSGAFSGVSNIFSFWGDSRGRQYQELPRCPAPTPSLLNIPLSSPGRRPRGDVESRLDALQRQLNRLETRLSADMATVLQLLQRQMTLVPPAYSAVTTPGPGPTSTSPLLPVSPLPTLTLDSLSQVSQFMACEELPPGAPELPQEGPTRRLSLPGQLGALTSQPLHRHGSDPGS

Row | Compound | hERG current change (%, negative = inhibition) at 1uM
1 | CN(Cc1ccccc1)C(=O)COC(=O)c1cc(Cl)nc(Cl)c1 | 11.7%
2 | CN(CC(=O)Nc1ccccc1Cl)C(=O)COC(=O)c1ccc(C(F)(F)F)cc1 | 5.83%
3 | CCOc1ccc(-c2nc(C#N)c(N3CCN(Cc4ccccc4)CC3)o2)cc1 | 14.5%
4 | CCN(CC)CCOc1nnc(-c2ccc(OC)cc2)c2ccccc12 | -25.1%
5 | O=[N+]([O-])c1ccccc1/C=C/C=N/n1c(-c2ccccc2)n[nH]c1=S | 12.9%
6 | COc1ccc(OCC(=O)NNC(=O)c2ccc3c(=O)n4c(nc3c2)CCC4)cc1 | 13.7%
7 | O=C(CCC(=O)NCc1ccccc1)NCc1ccccc1 | 13%
8 | COc1cc(NC(=O)COc2ccc(C)c(C)c2)ccc1NC(=O)c1ccco1 | 6.13%
9 | Cn1c(CCn2ccccc2=O)nc2cc(NC(=O)COc3ccccc3)ccc21 | -6.23%
10 | Cc1ccccc1N1C(=O)C2ON(c3ccccc3)C(c3ccco3)C2C1=O (stereo not drawn) | 20.4%
11 | CC1CCCCC1NC(=O)c1ccc(NS(=O)(=O)c2ccc3[nH]c(=O)[nH]c3c2)cc1 (stereo not drawn) | 5.04%
12 | O=C1CCCN1CN(C(=O)c1ccc2c(c1)OCO2)c1ccc(F)cc1 | 9.38%
13 | CCOc1ccc(C(=O)Nc2cc(=O)n(C)c(=O)n2C)cc1 | 14.6%
14 | COc1ccc(N2CCN(C(=O)CCn3nnc4ccccc43)CC2)cc1 | 6.1%
15 | Cc1cc(C)n2nc(C(=O)NCC(=O)Nc3ccc(F)c(F)c3)nc2n1 | 9.22%
16 | CCc1nn(CCCC(=O)N2CCC(C)CC2)c(=O)c2cc3occc3n12 | 9.11%
17 | Cc1ccsc1C(=O)Nc1cccc(S(=O)(=O)N(C)C)c1 | -2.19%
18 | Cn1c(=O)cc(SCC(=O)N2CCN(C(=O)c3ccco3)CC2)c2ccccc21 | 12.6%
19 | Cc1ccc(N(CC(=O)NC2CCCCC2)C(=O)CNC(=O)c2cccs2)cc1 | 8.05%
20 | CCOc1ccc2ccccc2c1C(=O)N1CCN(c2ccccc2)CC1 | -7.74%
21 | O=C1N=c2ccccc2=C1c1sc(=O)[nH]c1O | 15%
22 | Cn1cc(Br)c(C(=O)n2cc(Br)cn2)n1 | 11.5%
23 | CCOCCn1c(COc2ccc(C)cc2)nc2ccccc21 | -16.9%

Row | Compound | hERG current change (%, negative = inhibition) at 1uM
24 | CC(=O)Nc1ccc(NC(=O)CSc2nnc(COc3ccccc3C)n2CC2CCCO2)cc1 (stereo not drawn) | 8.16%
25 | CCn1c(O)c(N=NC(=O)c2cccs2)c2ccccc21 | 16.6%
26 | O=C(O)CC(c1ccccc1)N1C(=O)c2ccccc2C1=O (stereo not drawn) | 9.6%
27 | COC(=O)c1sccc1NC(=O)c1cc(C)on1 | 1.8%
28 | Cc1c(CN2CCC(CO)(CCOc3ccccc3)CC2)c(=O)n(-c2ccccc2)n1C | 10.5%
29 | O=[N+]([O-])c1cccc(S(=O)(=O)c2ccc(NCCO)c([N+](=O)[O-])c2)c1 | -4.72%
30 | Cc1cc(C)c(S(=O)(=O)n2c([N+](=O)[O-])cnc2C)c(C)c1 | 20.1%
31 | COC(=O)c1c(C)[nH]c(C(=O)CN2C(=O)NC3(CCOc4ccccc43)C2=O)c1C (stereo not drawn) | 11.6%
32 | CCOC(=O)C1(CC)NC(c2ccco2)C2C(=O)N(C)C(=O)C21 (stereo not drawn) | 16.6%
33 | CCc1ccc(OCC(=O)N/N=C(\C)c2ccc(OC(F)F)cc2)cc1 | 7.77%
34 | CCCC(=O)Nc1ccc(S(=O)(=O)Nc2cc(C)nc(C)n2)cc1 | 4.18%
35 | O=C(NN1C(=O)C2C(C1=O)C1C=CC2C12CC2)c1ccccc1Cl (stereo not drawn) | 13.4%
36 | Cc1ccc2c(C(=O)CN3CC(C)CC(C)C3)c(C)[nH]c2c1 (stereo not drawn) | -8.38%
37 | COc1cc(OC)cc(C(=O)NCC(=O)OCC(=O)c2cc(C)n(Cc3ccco3)c2C)c1 | 6.92%
38 | CCOc1ccccc1CNC(=O)CCCc1cn(C)c2ccccc12 | 18.4%
39 | CCn1c(-c2ccccc2O)n[nH]c1=S | 19.6%
40 | O=c1oc(-c2ccc([N+](=O)[O-])cc2)nc2ccccc12 | 9.11%
41 | CCOC(=O)NC1(NC2CCCCC2)Oc2ccccc2O1 | 9.56%
42 | CCOC(=O)CNC(=O)N1CCCC(CNS(=O)(=O)Cc2ccccc2)C1 (stereo not drawn) | 5.98%
43 | COc1cccc2[nH]c(C(=O)NCC3CCCO3)cc12 (stereo not drawn) | 12.5%
44 | COc1nc(N(C)C)nc(N(C#N)S(=O)(=O)c2ccc(C)cc2)n1 | 13.4%
45 | Cc1ccc(C)c(S(=O)(=O)N2CCCC2CNC(=O)C(=O)NCc2ccccn2)c1 (stereo not drawn) | 3.03%

Source: article PMC4336329 (PLoS ONE, 2015)
